Data taken from PubChem BioAssay AID1030 (National Center for Advancing Translational Sciences (NCATS), 2008).
About 16,000 (7.3%) of roughly 220,000 compounds were called active. The inconclusive results got no clear call from the source; some entries with a clear call stand among them for comparison. Calls come from the whole dose curve; as a rule, active = well fitted inhibition curve with a large enough effect (not every such curve was filed as active); inconclusive = small, poorly fitted or top-dose-only effect, or another doubt; inactive = no such curve, though single readings can be large or run the other way. Potencies of inconclusive entries are left out as doubtful fits.

The compounds below were run against Aldehyde dehydrogenase 1A1 (Homo sapiens) (UniProt P00352) (assay: qHTS Assay for Inhibitors of Aldehyde Dehydrogenase 1 (ALDH1A1)). Conditions: Purified ALDH1A1, NADH fluorescence, propionaldehyde substrate; series mostly up to 75.3 µM.
Chain of UniProt P00352 (P00352 whole entry, looked up): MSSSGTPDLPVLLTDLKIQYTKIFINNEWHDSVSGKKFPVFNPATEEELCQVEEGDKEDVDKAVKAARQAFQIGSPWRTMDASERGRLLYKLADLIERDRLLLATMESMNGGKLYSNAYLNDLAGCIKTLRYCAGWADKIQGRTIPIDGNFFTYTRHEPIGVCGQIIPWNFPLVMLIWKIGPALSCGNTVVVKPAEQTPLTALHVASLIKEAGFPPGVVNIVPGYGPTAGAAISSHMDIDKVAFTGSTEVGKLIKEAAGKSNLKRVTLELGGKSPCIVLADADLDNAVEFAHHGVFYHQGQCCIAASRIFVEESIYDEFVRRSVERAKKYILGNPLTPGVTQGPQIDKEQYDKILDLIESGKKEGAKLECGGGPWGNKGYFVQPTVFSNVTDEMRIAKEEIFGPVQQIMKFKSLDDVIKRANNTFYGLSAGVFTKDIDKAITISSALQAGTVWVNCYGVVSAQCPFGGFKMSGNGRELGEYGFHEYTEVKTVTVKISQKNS
Potency is the fitted concentration of half-maximal effect; tags give direction and shape of the fitted curve.

SMILES	Potency
O=C(CC1C(=O)N(c2ccc(Cl)cc2)C(=S)N1CCc1ccncc1)Nc1ccc(F)cc1 (configuration not stated)	inconclusive [inhibitor, single point]
COc1ccc(C2=N[C@H](c3ccccc3)CO2)cc1	inconclusive [inhibitor, single point]
CC(=O)Nc1ccc(N=Cc2ccc(OCc3ccccc3)cc2)cc1	inconclusive [inhibitor, single point]
COc1cc2c(cc1NC(=S)Nc1cccc3ccccc13)oc1ccccc12	inconclusive [inhibitor, partial curve]
c1ccc2c(c1)OCC(c1nnc3sc(-c4ccc5c(c4)OCO5)nn13)O2 (configuration not stated)	inconclusive [inhibitor, partial curve]
Cc1ccc(/C=C/C2=CC3(C)CC2(C)C(c2ccc(C)cc2)CC3=O)cc1 (configuration not stated)	inconclusive [inhibitor, single point]
CCC1CCc2c(sc(NC(=O)C3c4ccccc4Oc4ccccc43)c2C(N)=O)C1 (configuration not stated)	inconclusive [inhibitor, single point]
Cc1cnc(SCCc2ccncc2)nc1C	inconclusive [inhibitor, single point]
COC(=O)c1cccc(C(=O)N2CCCC(C(=O)c3cc(F)ccc3F)C2)c1 (configuration not stated)	inconclusive [inhibitor, single point]
CN(C)C=Nc1nc2ccccc2nc1N1CCCC1	inconclusive [inhibitor, partial curve]
COc1ccc(CNC(=O)C2CCCN(c3nc4ccccc4o3)C2)c(OC)c1 (configuration not stated)	inconclusive [inhibitor, partial curve]
CCC(C)C(NS(=O)(=O)c1ccc(C)cc1)C(=O)Oc1ccc2c3c(c(=O)oc2c1)CCC3 (configuration not stated)	inconclusive [inhibitor, partial curve]
COCCNC(=O)/C=C/c1c(Cl)cccc1Cl	inactive
CCC(C)NC(=O)C(Sc1ccccc1)c1ccccc1 (configuration not stated)	inconclusive [inhibitor, single point]
O=C(c1cccn(Cc2ccc(C(F)(F)F)cc2)c1=O)N1CCOCC1	inactive
Cc1ccc(NC(=O)c2ccc(CSc3nnc(C)s3)cc2)c(C)c1	inconclusive [inhibitor, single point]
CC1CCCCN1C(=O)c1ccc(C(=O)N2CCCCC2C)cc1 (configuration not stated)	inactive
O=C(COC(=O)c1ccc(Cl)cc1O)Nc1cccnc1Cl	inconclusive [inhibitor, partial curve]
Cc1cc(Nc2ccc(Cl)cc2)nc(NCc2ccccc2)n1	inactive
CS(=O)(=O)N1CCN(c2ccc([N+](=O)[O-])cc2F)CC1	active: 3.16 µM
Cc1ccc(CO/N=C\Cc2snc(Sc3ncc(C(F)(F)F)cc3Cl)c2C#N)cc1	inconclusive [inhibitor, single point]
COc1ccc(Nc2nnc(SCc3cc([N+](=O)[O-])cc4c3OCOC4)s2)cc1	inconclusive [inhibitor, single point]
COc1ccc(/C=C/S(=O)(=O)NCc2ccccc2)cc1OC	inactive
Cc1ccnc(-n2sc3ccccc3c2=O)n1	active: 1.26 µM

SMILES	Potency
CCCc1nn(C)c(C(=O)Nc2ccc(C)c(C)c2)c1Cl	inconclusive [inhibitor, single point]
Cc1ccc(OCCCCNC2CCCC(C)C2C)c(C)c1 (configuration not stated)	inactive
CC(C)OC(=O)c1ccc(NC(=O)CSc2nc3ncccc3[nH]2)cc1	inconclusive [inhibitor, single point]
COc1ccc(N2C(=O)CC(N3CCN(c4ccccc4F)CC3)C2=O)cc1 (configuration not stated)	inconclusive [inhibitor, single point]
COc1cc(NC(=O)c2cc3c(=O)n(C)c4ccccc4c3n2C)cc(OC)c1OC	inconclusive [inhibitor, partial curve]
CCOc1ccc(N2Cc3ccccc3C2)cc1	inconclusive [inhibitor, single point]
CCOC(=O)c1cc(NC(=O)c2ccccc2)c(=O)n2c1oc1ccccc12	inconclusive [inhibitor, full curve]
CC1(C)OC(=O)C(=CNC(Cc2c[nH]c3ccccc23)C(=O)O)C(=O)O1 (configuration not stated)	active: 25.1 µM
CC(C)(C)c1ccc(/C=C(\C#N)C(=O)NCCN2CCOCC2)cc1	inactive
COc1ccc(O)c(-c2cc(-c3cccs3)[nH]n2)c1	inconclusive [inhibitor, single point]
CCOc1ccc(C(=O)NC(=S)Nc2ccccc2N2CCC(C)CC2)cc1[N+](=O)[O-]	inconclusive [inhibitor, partial curve]
CCN(CC)S(=O)(=O)c1ccc(N2CCCC2)c(NS(=O)(=O)c2cccs2)c1	active: 0.282 µM
O=C(O)C1CC(=O)N(c2ccc(OCc3ccccc3Cl)cc2)C1 (configuration not stated)	inactive
CC1Cc2ccccc2N1Cc1nc2cc(C(F)(F)F)ccc2c(=O)[nH]1 (configuration not stated)	inconclusive [inhibitor, single point]
Cc1ccc(NC(=O)CNC2CCS(=O)(=O)C2)cc1C (configuration not stated)	active: 15.8 µM
Cc1nnc(SCC(=O)Nc2nccs2)n(N)c1=O	inactive
CC(C)CCOc1cccc(OCC(=O)O)c1	inactive
CCOC(=O)N1CCN(CC(=O)n2c(C)c(C)c3ccccc32)CC1	inconclusive [inhibitor, single point]
COc1ccc(-n2nnnc2-c2cn(C)nc2C(F)(F)F)cc1	inactive
O=C(c1ccccc1)c1sc(N2CCCCCC2)nc1-c1ccccc1	inconclusive [inhibitor, single point]
Cc1nnc(N/N=C/c2ccc(-c3ccc(Br)cc3)o2)n1N	active: 7.94 µM
COc1ccc(C(=O)Nc2ccc3oc(-c4cccc(F)c4)nc3c2)cc1OC	inconclusive [inhibitor, partial curve]
Cc1c(Cl)cccc1NC(=S)NCCC(c1ccccc1)c1ccccc1	inconclusive [inhibitor, single point]
